# Laboratory results taken from PubChem BioAssay AID1461 (National Center for Advancing Translational Sciences (NCATS), 2008).
# Screen size: about 220,000 compounds; about 2,300 (1%) were called active. The shares of active, inactive and inconclusive entries below differ from those in the screen. Calls come from the whole dose curve; as a rule, active = well fitted inhibition curve with a large enough effect; inconclusive = small, poorly fitted or top-dose-only effect, or effect the other way; inactive = no such curve, though single readings can be large or run the other way. No potency is given beside an inconclusive call; the fits are too rough.
# Molecular target: Neuropeptide S receptor (Homo sapiens) (UniProt Q6W5P4)
# Chain of UniProt Q6W5P4 (Q6W5P4 whole entry, looked up): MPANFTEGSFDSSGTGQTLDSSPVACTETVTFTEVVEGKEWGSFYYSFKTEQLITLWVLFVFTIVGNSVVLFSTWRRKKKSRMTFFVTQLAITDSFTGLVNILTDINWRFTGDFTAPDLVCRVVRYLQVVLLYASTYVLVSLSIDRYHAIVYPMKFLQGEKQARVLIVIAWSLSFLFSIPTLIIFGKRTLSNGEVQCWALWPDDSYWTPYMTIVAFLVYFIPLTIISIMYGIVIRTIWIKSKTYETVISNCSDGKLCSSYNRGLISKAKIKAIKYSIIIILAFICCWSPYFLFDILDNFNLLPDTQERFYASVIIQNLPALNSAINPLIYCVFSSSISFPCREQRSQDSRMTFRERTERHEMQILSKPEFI
# Assay: qHTS Assay for Antagonists of the Neuropeptide S Receptor: cAMP Signal Transduction; note: nearly all actives have a fitted effect of over 50% in size
# Conditions: CHO-NPSR cells, cAMP TR-FRET, antagonist mode; series mostly up to 38.3 µM
# Potency is the fitted concentration of half-maximal effect; tags give direction and shape of the fitted curve.
row,Structure (SMILES),Potency
1,CCC(C(=O)NC1CCCC1)N(Cc1ccco1)C(=O)Cn1nnc(-c2ccc(C)cc2)n1 (stereo unspecified),"inconclusive [inhibitor, single point]"
2,COc1ccc(NC(=O)CSc2c(C)nn(-c3nnc(C)c(=O)[nH]3)c2C)cc1,inactive
3,O=C(Nc1ccccc1)c1ccc(S(=O)(=O)NCC2CCCO2)cc1 (stereo unspecified),"inconclusive [inhibitor, full curve, poor fit]"
4,CCCCCC(=O)N(CN1C(=O)CCC1=O)c1ccccc1,inactive
5,Nc1nc(NCc2ccco2)nc(N2CCN(Cc3ccccc3)CC2)c1[N+](=O)[O-],inactive
6,O=C1CCCc2cc3c(cc21)CC1(C3)Cc2cc3c(cc2C1)C(=O)CCC3,"inconclusive [activator, single point]"
7,COc1ccc(-c2[nH]ncc2CN2CCCOc3c(cccc3OC)C2)c(OC)c1,inactive
8,Oc1cccc(-c2nc3c4c(ncn3n2)-c2ccccc2CC42CCCC2)c1,"inconclusive [inhibitor, single point]"
9,Nc1nc(Sc2c([N+](=O)[O-])cc(C(F)(F)F)cc2[N+](=O)[O-])n[nH]1,"inconclusive [activator, single point]"
10,CCOC(=O)C(C)On1c(-c2cccc(Cl)c2)nc2ccc([N+](=O)[O-])cc21 (stereo unspecified),"inconclusive [inhibitor, single point]"
11,Cc1ccc2[nH]c(=O)c(CN(Cc3ccccc3)Cc3nnnn3C3CCCC3)cc2c1,"inconclusive [inhibitor, single point]"
12,COc1ccc(-n2c(Cc3cccs3)nnc2SCC(=O)Nc2ccc3c(c2)OCCO3)cc1,"inconclusive [inhibitor, partial curve]"
13,COc1ccc(CCN2C(=O)C3C4CC(C5C(C(=O)NN)=NOC45)C3C2=O)cc1OC (stereo unspecified),"inconclusive [inhibitor, single point]"
14,O=C(c1ccc(F)cc1)N1CCCCC(Sc2nnc3ccccn23)C1=O (stereo unspecified),inactive
15,O=C(COc1ccc(OCc2ccccc2)cc1)NN=C1CCCC1,inactive
16,C=CCN(C(=O)CSc1nc2c(sc3ccccc32)c(=O)n1CCN(CC)CC)c1ccccc1,"inconclusive [inhibitor, single point]"
17,Cc1cc(C)n(/N=C\c2c(O)ccc3ccccc23)c(=O)c1C(N)=O,"inconclusive [activator, single point]"
18,CCc1nc(N2CCN(C(=O)c3ccccc3)CC2)c2c3c(sc2n1)CCCC3,"inconclusive [activator, partial curve]"
19,COc1ccccc1Nc1nc(N)nc(CSC(=S)N2CCCCC2C)n1 (stereo unspecified),"inconclusive [inhibitor, partial curve, poor fit]"
20,Cc1cc(-c2ccco2)n(-c2ccccc2)n1,inactive
21,S=c1[nH]c2ccc(Cl)cc2s1,"inconclusive [activator, single point]"
22,Cc1nc(C)c(C(=O)NNS(=O)(=O)c2ccc3ccccc3c2)s1,inactive
23,Cc1nc(SCC(=O)c2ccc(Cl)s2)c2oc3ccccc3c2n1,"inconclusive [inhibitor, single point]"

row,Structure (SMILES),Potency
1,COc1cccc(CN2CCN(Cc3ccc4c(NC(C)=O)cccc4n3)CC2CCO)c1 (stereo unspecified),inactive
2,Cc1cc(NC(=O)COC(=O)C(Nc2ccc(C(F)(F)F)cc2Cl)C(C)C)no1 (stereo unspecified),"inconclusive [inhibitor, single point]"
3,CC(C)(C)c1cc(C(=O)NCc2ccccc2)ccn1,inactive
4,CCOC(=O)c1c(/N=C/N(C)C)sc(/C=N/Nc2ccccc2)c1-c1ccccc1,inactive
5,CCc1cc(OCCCCNCc2ccccc2)ccc1Cl,"inconclusive [inhibitor, single point]"
6,CC(C)NC(=O)NC(=O)COC(=O)c1ccccc1F,inactive
7,OC(COc1cccc2ccccc12)CN1CCN(c2ccccc2Cl)CC1 (stereo unspecified),"inconclusive [inhibitor, single point]"
8,COc1ccc(C(=O)N=c2sc3ccccc3n2C)cc1,"inconclusive [inhibitor, single point]"
9,O=C(CSc1nnc(-c2cccnc2)n1Cc1ccco1)N1c2ccccc2Sc2ccccc21,"inconclusive [inhibitor, single point]"
10,O=C(N/N=C/c1ccsc1)c1cc(-c2cccs2)nc2ccccc12,inactive
11,Cc1cccc(Oc2sc(C(=O)c3ccccc3)c(N)c2C#N)c1C,"inconclusive [inhibitor, single point]"
12,COc1ccc(NS(=O)(=O)c2ccc(OCC(=O)N3CCOCC3)cc2)cc1,inactive
13,Cc1cccc(CN2C(=O)N/C(=C/c3cc(C)n(-c4cc(C)ccn4)c3C)C2=O)c1,active: 15.8 µM
14,COC(=O)c1cc(C(=O)OC)n(Cc2ccc(C)cc2)c1C,"inconclusive [inhibitor, single point]"
15,c1ccc(CN2CCN(C(c3ccccc3)c3nnnn3Cc3ccccc3)CC2)cc1 (stereo unspecified),inactive
16,Cc1[nH]c2ccccc2c1C1=CN2CCS(=O)(=O)N=C2S1,"inconclusive [inhibitor, partial curve, poor fit]"
17,COc1cccc(C2C=C(c3ccc(Br)s3)Nc3ncnn32)c1OC (stereo unspecified),"inconclusive [inhibitor, single point]"
18,OC1(c2ccc(Cl)c(Cl)c2)C[n+]2ccccc2N1Cc1ccccc1 (stereo unspecified),"inconclusive [inhibitor, single point]"
19,COc1ccc(C)c2sc(=NC(=O)C(C)C)n(C)c12,"inconclusive [activator, single point]"
20,CCOC(=O)Cc1csc(NC(=O)NC2(C(F)(F)F)Oc3ccc(Cl)cc3O2)n1 (stereo unspecified),inactive
21,O=C(CSc1ccc(Cl)cc1)N1CCN(c2c(Cl)cccc2[N+](=O)[O-])CC1,"inconclusive [inhibitor, partial curve]"
22,O=C1CC(Sc2ccc(Cl)cc2)C(=O)N1Cc1ccncc1 (stereo unspecified),inactive
23,O=C(c1ccccc1Nc1ccc(SC(F)F)cc1)N1CCCCCC1,"inconclusive [inhibitor, single point]"
